In paper PMC7706265:
Changes are numbered by the printed parent chain. Names may count otherwise. No constants are given. Whether binding was seen depends on the method and setting. In cells and extracts the contact can be indirect. Some binding calls cover weakened binding; strength is not graded here. Sequences can lack the tags named with a protein. Blank lines part the entries; values can stand above or below the molecule they belong to.

Amino acid sequences for entries named in this document (tags omitted).
UniProt Q5DTW7: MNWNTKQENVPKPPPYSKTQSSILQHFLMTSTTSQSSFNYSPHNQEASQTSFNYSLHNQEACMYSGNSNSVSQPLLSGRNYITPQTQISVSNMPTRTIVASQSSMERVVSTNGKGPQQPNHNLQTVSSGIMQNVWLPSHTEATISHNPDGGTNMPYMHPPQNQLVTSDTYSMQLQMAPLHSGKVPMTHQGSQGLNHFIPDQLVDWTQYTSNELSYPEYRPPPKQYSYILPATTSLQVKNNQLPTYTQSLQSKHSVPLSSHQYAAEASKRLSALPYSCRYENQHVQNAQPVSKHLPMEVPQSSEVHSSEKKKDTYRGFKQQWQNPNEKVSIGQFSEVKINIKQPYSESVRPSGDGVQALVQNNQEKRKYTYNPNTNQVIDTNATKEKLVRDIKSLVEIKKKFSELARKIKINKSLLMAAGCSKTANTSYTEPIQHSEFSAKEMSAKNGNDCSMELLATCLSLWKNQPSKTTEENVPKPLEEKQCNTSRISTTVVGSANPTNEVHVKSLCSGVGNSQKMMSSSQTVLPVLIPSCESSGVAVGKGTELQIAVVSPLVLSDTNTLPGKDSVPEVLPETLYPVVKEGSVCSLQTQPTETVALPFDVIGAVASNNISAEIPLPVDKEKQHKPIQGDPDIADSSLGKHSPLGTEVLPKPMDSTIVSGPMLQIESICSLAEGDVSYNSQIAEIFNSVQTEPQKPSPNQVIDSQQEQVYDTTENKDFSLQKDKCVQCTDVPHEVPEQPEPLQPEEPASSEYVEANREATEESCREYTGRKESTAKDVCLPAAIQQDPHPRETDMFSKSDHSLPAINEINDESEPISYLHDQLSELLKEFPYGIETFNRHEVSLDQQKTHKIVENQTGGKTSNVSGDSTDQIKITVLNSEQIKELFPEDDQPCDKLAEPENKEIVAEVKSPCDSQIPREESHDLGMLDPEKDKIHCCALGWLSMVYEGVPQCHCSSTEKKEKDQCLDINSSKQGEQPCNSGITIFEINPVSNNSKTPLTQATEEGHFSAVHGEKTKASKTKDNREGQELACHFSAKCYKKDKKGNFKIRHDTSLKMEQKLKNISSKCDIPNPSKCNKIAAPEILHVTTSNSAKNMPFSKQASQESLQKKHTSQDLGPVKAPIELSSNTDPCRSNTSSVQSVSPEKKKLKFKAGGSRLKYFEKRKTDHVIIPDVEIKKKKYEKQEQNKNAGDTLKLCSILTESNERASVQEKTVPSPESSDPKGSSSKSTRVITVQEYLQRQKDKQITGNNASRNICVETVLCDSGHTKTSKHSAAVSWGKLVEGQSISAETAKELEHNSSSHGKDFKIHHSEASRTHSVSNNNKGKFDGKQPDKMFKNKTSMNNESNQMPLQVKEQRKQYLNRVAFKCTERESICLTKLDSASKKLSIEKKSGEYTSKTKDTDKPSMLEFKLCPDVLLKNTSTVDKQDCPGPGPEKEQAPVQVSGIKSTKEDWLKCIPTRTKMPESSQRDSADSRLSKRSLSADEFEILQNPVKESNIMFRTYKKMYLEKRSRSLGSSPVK
UniProt A2A791: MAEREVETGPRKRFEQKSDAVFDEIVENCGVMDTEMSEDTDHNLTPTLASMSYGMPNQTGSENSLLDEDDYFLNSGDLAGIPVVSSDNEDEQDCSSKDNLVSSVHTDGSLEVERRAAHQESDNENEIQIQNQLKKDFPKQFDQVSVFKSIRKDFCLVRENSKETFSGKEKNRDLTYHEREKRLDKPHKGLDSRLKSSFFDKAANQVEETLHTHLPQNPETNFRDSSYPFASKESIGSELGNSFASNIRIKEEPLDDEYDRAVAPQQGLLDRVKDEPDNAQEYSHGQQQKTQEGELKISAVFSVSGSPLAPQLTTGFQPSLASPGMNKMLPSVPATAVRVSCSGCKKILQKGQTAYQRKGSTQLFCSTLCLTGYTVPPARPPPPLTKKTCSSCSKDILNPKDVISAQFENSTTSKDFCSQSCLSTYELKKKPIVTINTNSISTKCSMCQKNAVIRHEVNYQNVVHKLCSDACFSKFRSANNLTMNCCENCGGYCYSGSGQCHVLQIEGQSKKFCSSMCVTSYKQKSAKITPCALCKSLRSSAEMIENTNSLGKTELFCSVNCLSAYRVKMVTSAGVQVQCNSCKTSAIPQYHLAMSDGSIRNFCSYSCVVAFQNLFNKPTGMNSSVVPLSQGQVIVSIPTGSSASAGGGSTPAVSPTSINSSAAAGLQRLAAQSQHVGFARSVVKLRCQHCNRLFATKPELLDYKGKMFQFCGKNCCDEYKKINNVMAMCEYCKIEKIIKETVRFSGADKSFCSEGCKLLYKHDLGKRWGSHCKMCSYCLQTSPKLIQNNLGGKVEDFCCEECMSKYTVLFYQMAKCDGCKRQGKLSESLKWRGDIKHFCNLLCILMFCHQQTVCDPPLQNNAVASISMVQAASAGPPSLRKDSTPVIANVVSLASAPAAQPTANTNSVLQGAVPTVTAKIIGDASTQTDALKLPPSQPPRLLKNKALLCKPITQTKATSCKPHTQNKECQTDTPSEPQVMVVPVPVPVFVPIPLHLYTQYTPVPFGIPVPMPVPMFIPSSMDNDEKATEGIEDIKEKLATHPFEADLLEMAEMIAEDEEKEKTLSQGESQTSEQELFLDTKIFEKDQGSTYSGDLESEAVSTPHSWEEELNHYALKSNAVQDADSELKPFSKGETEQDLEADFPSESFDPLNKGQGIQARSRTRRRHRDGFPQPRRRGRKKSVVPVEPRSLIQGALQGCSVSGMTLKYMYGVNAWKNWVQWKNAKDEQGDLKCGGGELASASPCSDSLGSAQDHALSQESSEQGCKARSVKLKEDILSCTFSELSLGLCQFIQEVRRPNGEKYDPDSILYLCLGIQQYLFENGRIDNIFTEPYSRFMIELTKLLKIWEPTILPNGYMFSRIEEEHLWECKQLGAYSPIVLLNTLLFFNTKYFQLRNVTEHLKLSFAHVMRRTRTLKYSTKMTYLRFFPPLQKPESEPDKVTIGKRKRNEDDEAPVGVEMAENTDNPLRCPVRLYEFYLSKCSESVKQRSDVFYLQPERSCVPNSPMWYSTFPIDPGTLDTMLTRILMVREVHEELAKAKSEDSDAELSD

Tests used:
[1] = biological target: T1, 3xFLAG-tagged ATF7IP dFNIII mutant (transiently expressed in HEK293T cells) (mouse) (UniProt Q7TT18); test: co-IP; HEK293T cells transiently co-transfected with 3xFLAG-ATF7IP (WT or dFNIII) and V5-tagged proteins; precipitated with anti-FLAG M2 affinity gel, 4 °C; western blot; which lysis buffer was used is not said
T1 sequence: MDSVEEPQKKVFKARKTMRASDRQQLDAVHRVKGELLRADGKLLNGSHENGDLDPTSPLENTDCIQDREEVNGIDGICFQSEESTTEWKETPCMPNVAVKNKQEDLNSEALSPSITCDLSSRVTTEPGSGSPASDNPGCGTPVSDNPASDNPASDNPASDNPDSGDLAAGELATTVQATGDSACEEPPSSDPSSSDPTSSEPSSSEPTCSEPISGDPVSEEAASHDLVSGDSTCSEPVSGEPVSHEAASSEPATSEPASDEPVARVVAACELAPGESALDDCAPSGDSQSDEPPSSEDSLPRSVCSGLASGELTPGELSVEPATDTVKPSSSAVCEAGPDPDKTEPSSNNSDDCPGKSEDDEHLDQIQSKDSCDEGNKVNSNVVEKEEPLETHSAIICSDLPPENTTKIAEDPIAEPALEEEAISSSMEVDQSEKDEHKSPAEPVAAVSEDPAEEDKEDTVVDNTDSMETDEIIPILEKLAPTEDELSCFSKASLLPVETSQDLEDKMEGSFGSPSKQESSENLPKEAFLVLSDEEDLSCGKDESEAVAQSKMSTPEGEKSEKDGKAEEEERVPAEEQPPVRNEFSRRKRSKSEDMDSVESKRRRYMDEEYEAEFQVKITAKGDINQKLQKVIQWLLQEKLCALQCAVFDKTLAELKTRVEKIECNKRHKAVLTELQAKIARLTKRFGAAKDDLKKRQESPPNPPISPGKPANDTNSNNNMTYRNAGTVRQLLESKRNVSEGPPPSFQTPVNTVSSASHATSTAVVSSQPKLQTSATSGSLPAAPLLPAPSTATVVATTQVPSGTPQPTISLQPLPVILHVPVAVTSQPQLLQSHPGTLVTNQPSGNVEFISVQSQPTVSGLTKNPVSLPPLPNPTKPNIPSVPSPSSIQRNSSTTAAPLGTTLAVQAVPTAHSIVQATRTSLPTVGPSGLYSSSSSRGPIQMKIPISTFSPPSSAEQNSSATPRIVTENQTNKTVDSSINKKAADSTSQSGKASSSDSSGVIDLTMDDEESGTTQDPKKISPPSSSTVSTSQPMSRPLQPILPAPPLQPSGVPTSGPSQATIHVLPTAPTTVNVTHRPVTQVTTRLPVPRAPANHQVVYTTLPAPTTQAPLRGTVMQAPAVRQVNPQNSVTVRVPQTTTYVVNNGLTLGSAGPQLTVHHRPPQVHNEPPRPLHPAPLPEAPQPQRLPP

[2] = biological target: T2, 3xFLAG-tagged ATF7IP WT (transiently expressed in HEK293T cells) (mouse) (UniProt Q7TT18); test: as above
T2 sequence: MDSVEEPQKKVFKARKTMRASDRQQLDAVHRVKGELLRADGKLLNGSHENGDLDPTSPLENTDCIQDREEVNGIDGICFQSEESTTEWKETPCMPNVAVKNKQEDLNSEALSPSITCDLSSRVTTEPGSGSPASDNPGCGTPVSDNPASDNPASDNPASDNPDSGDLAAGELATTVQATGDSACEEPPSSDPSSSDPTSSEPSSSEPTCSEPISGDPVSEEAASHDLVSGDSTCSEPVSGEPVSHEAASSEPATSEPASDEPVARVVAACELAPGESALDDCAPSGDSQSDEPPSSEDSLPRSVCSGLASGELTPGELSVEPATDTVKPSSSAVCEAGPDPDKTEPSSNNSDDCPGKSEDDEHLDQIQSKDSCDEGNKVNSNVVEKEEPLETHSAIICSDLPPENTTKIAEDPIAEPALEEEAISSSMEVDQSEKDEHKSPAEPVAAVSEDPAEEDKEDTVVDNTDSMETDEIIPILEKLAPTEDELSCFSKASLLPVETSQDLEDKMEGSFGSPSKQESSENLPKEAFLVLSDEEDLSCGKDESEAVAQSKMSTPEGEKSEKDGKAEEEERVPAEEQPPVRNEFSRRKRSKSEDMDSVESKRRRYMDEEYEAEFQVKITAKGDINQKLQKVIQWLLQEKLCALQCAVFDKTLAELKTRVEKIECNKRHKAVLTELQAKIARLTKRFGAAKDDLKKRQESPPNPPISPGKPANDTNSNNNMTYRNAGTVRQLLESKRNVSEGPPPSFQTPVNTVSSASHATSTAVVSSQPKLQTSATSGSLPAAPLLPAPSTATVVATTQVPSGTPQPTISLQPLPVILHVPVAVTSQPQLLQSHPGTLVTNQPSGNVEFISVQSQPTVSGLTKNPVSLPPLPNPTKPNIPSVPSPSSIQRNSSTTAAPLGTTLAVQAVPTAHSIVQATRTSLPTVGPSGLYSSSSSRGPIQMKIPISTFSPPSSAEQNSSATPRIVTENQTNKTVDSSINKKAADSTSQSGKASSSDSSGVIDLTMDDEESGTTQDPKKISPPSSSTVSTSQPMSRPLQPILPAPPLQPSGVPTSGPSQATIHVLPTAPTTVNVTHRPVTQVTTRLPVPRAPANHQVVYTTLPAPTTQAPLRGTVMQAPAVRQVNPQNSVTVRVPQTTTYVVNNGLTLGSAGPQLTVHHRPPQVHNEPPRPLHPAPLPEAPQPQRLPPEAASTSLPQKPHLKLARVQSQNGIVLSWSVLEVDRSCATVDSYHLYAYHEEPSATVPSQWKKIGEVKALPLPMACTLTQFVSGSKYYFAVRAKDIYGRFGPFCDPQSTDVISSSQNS

B1: V5-ZMYM2 d39aa mutant (lacks residues 182-220) (protein, UniProt Q9CU65)
chain: MDTSSVGTLELTDQTPVLLGSTAMATSLTNVGNSFSGPPNPLVSRSSKFQNSSVEDDDDVVFIEPVQPPPSSAPLVADQRPITFTSSKNEELQGNDPKILPSSKELAPQKGSVSETIVIDDEEDMETNQGQEKSSSNFIERRPSETKNRTNDVDFSSSTFSRSKVNAGVSNSGITTEPDSEHNTSLGDGSNGLQSSNFGVNIQTYTPSLTSQTKAGVGPFNPGRMNVAGDVFQNGESAPHHNPDSWISQSASFPRNQKQQGVDSLSPVASLPKQIFQPSNQQPTKPVKVTCANCKKPLQKGQTAYQRKGSAHLFCSTTCLSSFSHKPAPKKLCVMCKKDITTMKGTIVAQVDSSESFQEFCSTSCLSLYEDKQSPAKGALNKSRCTICGKLTEIRHEVSFKNMTHKLCSDHCFNRYRMANGLIMNCCEQCGEYLPSKGAGNNVLVVDGQQKRFCCQSCVTEYKQVGSHPSFLKEVRDHMQDSFLMQPEKYGKLTTCTGCRTQCRFFDMTQCIGPNGYMEPYCSTACMNSHKTKYAKSQSLGIICHFCKRNSLPQYQATMPDGKLYNFCNSSCVAKFQALSMQSSPNGQFVAPSDIQLKCNYCKNSFCSKPEILEWENKVHQFCSKTCSDDYKKLHCIVTYCEYCQEEKTLHETVNFSGVKRPFCSEGCKLLYKQDFARRLGLRCVTCNYCSQLCKKGATKELDGVVRDFCSEDCCKKFQEWYYKAARCDCCKSQGTLKERVQWRGEMKHFCDQHCLLRFYCQQNEPNMTTQKGPENLHYDQGCQTSRTKMTGSAPPPSPTPNKEMKNKAILCKPLTMTKATYCKPHMQTKSCQTDENWKTEYVPVPIPVPVYVPVPMHMYSQNIPVPTTVPVPVPVPVFLPAPLDSSEKIPATVEDLKSKVSSDPLDSELLTMTDMMTEEEGKAEASNINSVIIETDIIGSDLTKNSDPDIQSNMPDVPYEPDLDIEIDFPRAAEELDMENEFLLPPVFGEEYEEQPRPRSKKKGTKRKAVSGYQSHDDSSDNSECSFPFKYTYGVNAWKHWVKTRQLDEDLLVLDELKSSKSVKLKEDLLSHTTAELNYGLAHFVNEIRRPNGENYAPDSIYYLCLGIQEYLCGSNRKDNIFIDPGYQMFEQELNKILRSWQPSILPDGSIFSRVEEDYLWRIKQLGSHSPVALLNTLFYFNTKYFGLKTVEQHLRLSFGTVFRHWKKNPLTMENKACLRYQVSSLCGTDNEDKIATGKRKHEDDEPVFEQVENTANPSRCPVKMFECYLSKSPQNLNQRMDVFYLQPECSSSTDSPVWYTSTSLDRNTLENMLVRVLLVKDIYDKDNYELDEDTD
binding [2]: no binding

B2: V5-ZMYM2 FAM1 mutant (V187R/L190R) (protein, UniProt Q9CU65 1-1376)
chain: MDTSSVGTLELTDQTPVLLGSTAMATSLTNVGNSFSGPPNPLVSRSSKFQNSSVEDDDDVVFIEPVQPPPSSAPLVADQRPITFTSSKNEELQGNDPKILPSSKELAPQKGSVSETIVIDDEEDMETNQGQEKSSSNFIERRPSETKNRTNDVDFSSSTFSRSKVNAGVSNSGITTEPDSEIQIANRTTRETGVSSVSDGQLESTDGRDMNLMITHVTSLHNTSLGDGSNGLQSSNFGVNIQTYTPSLTSQTKAGVGPFNPGRMNVAGDVFQNGESAPHHNPDSWISQSASFPRNQKQQGVDSLSPVASLPKQIFQPSNQQPTKPVKVTCANCKKPLQKGQTAYQRKGSAHLFCSTTCLSSFSHKPAPKKLCVMCKKDITTMKGTIVAQVDSSESFQEFCSTSCLSLYEDKQSPAKGALNKSRCTICGKLTEIRHEVSFKNMTHKLCSDHCFNRYRMANGLIMNCCEQCGEYLPSKGAGNNVLVVDGQQKRFCCQSCVTEYKQVGSHPSFLKEVRDHMQDSFLMQPEKYGKLTTCTGCRTQCRFFDMTQCIGPNGYMEPYCSTACMNSHKTKYAKSQSLGIICHFCKRNSLPQYQATMPDGKLYNFCNSSCVAKFQALSMQSSPNGQFVAPSDIQLKCNYCKNSFCSKPEILEWENKVHQFCSKTCSDDYKKLHCIVTYCEYCQEEKTLHETVNFSGVKRPFCSEGCKLLYKQDFARRLGLRCVTCNYCSQLCKKGATKELDGVVRDFCSEDCCKKFQEWYYKAARCDCCKSQGTLKERVQWRGEMKHFCDQHCLLRFYCQQNEPNMTTQKGPENLHYDQGCQTSRTKMTGSAPPPSPTPNKEMKNKAILCKPLTMTKATYCKPHMQTKSCQTDENWKTEYVPVPIPVPVYVPVPMHMYSQNIPVPTTVPVPVPVPVFLPAPLDSSEKIPATVEDLKSKVSSDPLDSELLTMTDMMTEEEGKAEASNINSVIIETDIIGSDLTKNSDPDIQSNMPDVPYEPDLDIEIDFPRAAEELDMENEFLLPPVFGEEYEEQPRPRSKKKGTKRKAVSGYQSHDDSSDNSECSFPFKYTYGVNAWKHWVKTRQLDEDLLVLDELKSSKSVKLKEDLLSHTTAELNYGLAHFVNEIRRPNGENYAPDSIYYLCLGIQEYLCGSNRKDNIFIDPGYQMFEQELNKILRSWQPSILPDGSIFSRVEEDYLWRIKQLGSHSPVALLNTLFYFNTKYFGLKTVEQHLRLSFGTVFRHWKKNPLTMENKACLRYQVSSLCGTDNEDKIATGKRKHEDDEPVFEQVENTANPSRCPVKMFECYLSKSPQNLNQRMDVFYLQPECSSSTDSPVWYTSTSLDRNTLENMLVRVLLVKDIYDKDNYELDEDTD
binding [2]: binds

B3: V5-ZMYM2 FAM2 mutant (V217R/L220R) (protein, UniProt Q9CU65 1-1376)
chain: B2 chain with R187V, R190L, V217R, L220R
binding [2]: binds

B4: V5-ZMYM2 FAM1 and FAM2 double mutant (protein, UniProt Q9CU65 1-1376)
chain: B2 chain with V217R, L220R
binding [2]: no binding

The remaining lines, values ahead:

binding [1]: no binding
binding [2]: binds
Molecule: V5-tagged mouse KIAA1551 (from UniProt Q5DTW7 1-1521)

binding [2]: binds
Molecule: mouse ZMYM4 (expressed in HEK293T cells) (from UniProt A2A791 1-1549)

binding [1]: no binding
binding [2]: binds
B5: V5-tagged MGA (residues 2362-3003) (domain or fragment, UniProt A2AWL7 2362-3003)
chain: YYRRTHTANERRRRGEMRDLFEKLKITLGLLHSSKVSKSLILNRAFSEIQGLTDQADKLIGQKNLLSRKRSILIRKVSSLSGKTEEVVLKKLEYIYAKQQALEAQKRKKKLGSDEFCVSPRIGTQLEGSSASSVDLGQMLMNNRRGKPLILSRKRDQATENASPSDTPHSSANLVMTPQGQLLTLKGPLFSGPVVAVSPALLEGGLKPQVASSTMSQSENDDLFMMPRIVNVTSLAAEEDLGGMSGNKYRHEVPDGKPLDHLRDIAGSEASSLKDTERISSRGNHRDSRKALGPTQVLLANKDSGFPHVADVSTMQAAQEFIPKNMSGDVRGHRYKWKECELRGERLKSKESQFHKLKMKDLKDSSIEMELRKVASAIEEAALHPSELLTNMEDEDDTDETLTSLLNEIAFLNQQLNDDSGLAELSGSMDTEFSGDAQRAFISKLAPGNRSAFQVGHLGAGVKELPDVQEESESISPLLLHLEDDDFSENEKQLGDTASEPDVLKIVIDPEIKDSLVSHRKSSDGGQSTSGLPAEPESVSSPPILHMKTGPENSNTDTLWRPMPKLAPLGLKVANPPSDADGQSLKVMPALAPIAAKVGSIGHKMNLAGIDQEGRGSKVMPTLAPVVPKLGNSGAPSSSSGK
